Results: paper PMC4336329 (PLoS ONE, 2015)
In all, about 310,000 compounds went through this assay and about 2,200 (0.71%) showed an effect of 50% or more. Effects have a minus sign here. This is one part of the list.

Target: human ether-à-go-go-related gene (hERG) potassium channel (human, UniProt Q12809)
Assay: primary screen, population patch clamp on CHO cells stably expressing hERG

human ether-à-go-go-related gene (hERG) potassium channel, sequence (Q12809 whole entry, looked up): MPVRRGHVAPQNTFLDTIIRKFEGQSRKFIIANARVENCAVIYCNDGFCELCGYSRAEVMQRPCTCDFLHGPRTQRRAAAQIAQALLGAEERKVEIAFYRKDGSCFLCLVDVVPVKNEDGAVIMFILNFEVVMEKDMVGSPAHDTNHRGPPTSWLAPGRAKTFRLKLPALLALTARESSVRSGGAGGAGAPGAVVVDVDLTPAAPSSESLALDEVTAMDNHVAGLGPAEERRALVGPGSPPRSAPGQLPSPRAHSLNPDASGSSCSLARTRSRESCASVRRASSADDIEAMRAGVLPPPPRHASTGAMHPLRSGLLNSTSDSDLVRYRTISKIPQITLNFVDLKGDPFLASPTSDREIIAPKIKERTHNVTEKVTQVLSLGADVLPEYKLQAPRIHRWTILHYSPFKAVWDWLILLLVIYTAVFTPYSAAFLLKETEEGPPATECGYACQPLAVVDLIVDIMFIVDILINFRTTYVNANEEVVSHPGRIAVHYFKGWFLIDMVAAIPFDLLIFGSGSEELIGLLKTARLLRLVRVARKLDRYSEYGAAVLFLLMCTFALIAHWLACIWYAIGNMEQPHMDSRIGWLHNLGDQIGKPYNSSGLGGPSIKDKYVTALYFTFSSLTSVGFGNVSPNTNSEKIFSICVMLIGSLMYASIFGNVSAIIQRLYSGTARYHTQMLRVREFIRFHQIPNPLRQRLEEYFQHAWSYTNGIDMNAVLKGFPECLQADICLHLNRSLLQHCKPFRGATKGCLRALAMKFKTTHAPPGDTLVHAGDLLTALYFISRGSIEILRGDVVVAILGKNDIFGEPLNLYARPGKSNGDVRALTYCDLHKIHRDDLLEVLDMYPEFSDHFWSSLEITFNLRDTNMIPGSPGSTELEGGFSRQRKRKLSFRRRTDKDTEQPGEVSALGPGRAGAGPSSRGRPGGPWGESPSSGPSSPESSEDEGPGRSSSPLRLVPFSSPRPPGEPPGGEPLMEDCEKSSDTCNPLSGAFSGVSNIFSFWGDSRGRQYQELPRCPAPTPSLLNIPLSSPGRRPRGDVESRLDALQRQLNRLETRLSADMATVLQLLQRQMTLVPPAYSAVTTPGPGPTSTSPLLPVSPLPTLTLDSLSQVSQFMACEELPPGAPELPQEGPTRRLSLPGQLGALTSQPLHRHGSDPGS

SMILES | hERG current change (%, negative = inhibition) at 1uM [%]
Cc1cc(=O)oc2cc(OCC(=O)N3CCC(C(=O)O)(c4ccccc4)CC3)ccc12 | 8.62
O=C(CN1C(=O)C2CCCCC2C1=O)OCn1nnc2ccccc2c1=O (stereo not shown) | 1.7
O=[N+]([O-])c1cccc(-c2c[n+]3c(n2-c2ccccc2)SCC3)c1.[Br-] | -3.79
COc1ccc(-c2nc(CSCC(=O)NC3CCCC3)c(C)o2)cc1OC | 11.7
Cc1ccc(NC(=O)c2ccc(C)c(NC3=NC4CS(=O)(=O)CC4S3)c2)cc1C (stereo not shown) | 3.92
Nc1nc(-c2cccs2)c(NC(=O)c2ccccc2)s1 | 12.6
COc1cc(/C=C2\C(=O)NC(=O)N(c3ccccc3)C2=O)cc(OC)c1O | 5.98
O=C(Cn1cnc2c(cnn2-c2ccccc2)c1=O)N1CCOCC1 | 9.92
NC(=O)Cn1cnc2c(nnn2-c2cccc(Cl)c2)c1=O | 13.8
COC(=O)c1cc(NC(=O)Cc2cccs2)cc(C(=O)OC)c1 | 18
O=C(N1CCCCC1)N1CCC(c2nc3ccccc3[nH]2)CC1 | 18
C/C(=N\NC(=O)c1nnn(-c2nonc2N)c1CN(C)c1ccccc1)c1ccccn1 | 19.2
COc1ccccc1NC(=O)c1sc(NC(=O)c2ccco2)c(C#N)c1C | 17
CCc1nnc(NC(=O)c2ccc(OC)c(S(=O)(=O)N3CCCC3)c2)s1 | 8.25
COc1ccc(CCNC(=O)C(=O)NCC2OCCN2S(=O)(=O)c2cc(F)ccc2F)cc1OC (stereo not shown) | 5.67
Cc1cc(=O)c(C(=O)O)cn1Nc1ccc(Cl)cc1 | 7.33
O=C(NCCO)c1cccc(Cl)c1 | 15.1
CCCCCCCC(=O)Nc1cc(C(=O)NCCC)ccc1N1CCC2(CC1)CC(c1cccc(Br)c1)=NO2 | 15.8
Cc1c(NC(=S)N/N=C/c2ccc([N+](=O)[O-])cc2O)c(=O)n(-c2ccccc2)n1C | 1.14
CC12CCC(C(=O)Nc3nc4ccccc4s3)(OC1=O)C2(C)C (stereo not shown) | 16.8
COc1cccc(/C=N/NC(=O)CC(=O)NCCc2ccccc2)c1OC | 12.4
Cc1nn(S(=O)(=O)c2ccccc2)c(C)c1S(=O)(=O)N1CCC(C)CC1 | 12.6

SMILES | hERG current change (%, negative = inhibition) at 1uM [%]
CC1CCN(c2oc(-c3ccccc3Cl)nc2C#N)CC1 | 7.39
O=S(=O)(Nc1nnc(-c2ccccc2)s1)c1ccc(Cl)cc1 | -0.242
CCc1cccc(NC(=O)C2CCN(S(=O)(=O)c3ccc4c(c3)NC(=O)CO4)CC2)c1 | 4.07
CCc1cc(S(=O)(=O)N2CCN(C(=O)c3ccco3)CC2)ccc1OC | 7.07
c1csc(-c2ccnc3ncnn23)c1 | 11.2
Cc1csc(NC(=O)CSc2nnc(Cn3c(=O)sc4ccccc43)n2-c2ccccc2)n1 | -3.56
Cc1ccc2cc(C#N)c(N3CCCN(S(=O)(=O)c4ccccc4)CC3)nc2c1 | 6.64
COc1ccc(Nc2cc(C(=O)NCCCN3CCOCC3)c3ccccc3n2)cc1 | 13.9
COc1cccc(C(=O)c2c(C)c(CCC#N)n3ccccc23)c1 | 1.83
CCN1C(=O)c2cccc3c(S(=O)(=O)N(C(=O)c4ccncc4)c4ccc(OC)cc4)ccc1c23 | 7.02
O=C(NCc1ccc(OC(F)(F)F)cc1)c1cc(-c2ccccc2)nn1CC1CC(c2cccnc2)=NO1 (stereo not shown) | 9.37
COc1cc2c(cc1OC)C(C)N(C(=O)[C@@H](NC(=O)c1ccccc1)C(C)C)CC2 (stereo partly shown) | 5.54
C=CCNC(=O)c1scc2c1CCCC2 | 14.3
CC(=O)Nc1ccc(S(=O)(=O)Oc2ccc(C(=S)N3CCC(O)CC3)cc2)cc1 | -2.29
Cc1cc(C)c(C)c(S(=O)(=O)N2CCC(C(=O)N3CC(C)CC(C)C3)CC2)c1C (stereo not shown) | 3.62
CC(=O)c1ccc(NC(=S)NN2C(C)CCCC2C)cc1 (stereo not shown) | 1.9
CC(C)(C)c1cc(CCC(=O)NN)cc(C(C)(C)C)c1O | -0.142
CC1Cc2ccccc2N1C(=O)CSc1nc2cc3c(cc2cc1C#N)OCO3 (stereo not shown) | 10.1
O=c1[nH]c(C2CCN(S(=O)(=O)c3ccc(C(F)(F)F)cc3)CC2)nc2c1nnn2Cc1ccc(F)cc1 | 3.1
COc1cccc(CNC2CN3CCC2CC3)c1OC.Cl (stereo not shown) | 14.5
CN(C(=O)COC(=O)c1ccccc1SCC(=O)N1CCCC1)C1(C#N)CCCCC1 | 9.14
